Laboratory results published in publication PMC7005904.
Results are given in words; binding and its absence hold for the method and conditions named. For some assays here: In cells and extracts the contact can be indirect. Some results given as binding are weak or reduced against the parent protein; the word gives no strength. For some assays here: Where a sequence is shown, tags or fusion partners need not be part of it.

The chains behind the UniProt entries cited, without tags or fusion partners.
UniProt Q92993: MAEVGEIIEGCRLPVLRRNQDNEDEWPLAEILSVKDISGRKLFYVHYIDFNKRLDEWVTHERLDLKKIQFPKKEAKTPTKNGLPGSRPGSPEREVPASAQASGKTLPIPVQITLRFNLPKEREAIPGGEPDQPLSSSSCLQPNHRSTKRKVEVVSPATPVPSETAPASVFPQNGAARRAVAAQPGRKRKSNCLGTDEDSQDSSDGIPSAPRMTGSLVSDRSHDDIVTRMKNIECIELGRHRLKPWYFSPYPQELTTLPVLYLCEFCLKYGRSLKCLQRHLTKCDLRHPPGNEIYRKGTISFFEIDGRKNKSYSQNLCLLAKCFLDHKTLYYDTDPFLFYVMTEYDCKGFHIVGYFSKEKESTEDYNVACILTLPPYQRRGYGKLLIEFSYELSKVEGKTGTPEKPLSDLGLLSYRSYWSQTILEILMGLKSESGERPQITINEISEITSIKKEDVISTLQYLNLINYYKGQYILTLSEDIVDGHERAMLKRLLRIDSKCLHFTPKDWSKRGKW
UniProt Q96EB6: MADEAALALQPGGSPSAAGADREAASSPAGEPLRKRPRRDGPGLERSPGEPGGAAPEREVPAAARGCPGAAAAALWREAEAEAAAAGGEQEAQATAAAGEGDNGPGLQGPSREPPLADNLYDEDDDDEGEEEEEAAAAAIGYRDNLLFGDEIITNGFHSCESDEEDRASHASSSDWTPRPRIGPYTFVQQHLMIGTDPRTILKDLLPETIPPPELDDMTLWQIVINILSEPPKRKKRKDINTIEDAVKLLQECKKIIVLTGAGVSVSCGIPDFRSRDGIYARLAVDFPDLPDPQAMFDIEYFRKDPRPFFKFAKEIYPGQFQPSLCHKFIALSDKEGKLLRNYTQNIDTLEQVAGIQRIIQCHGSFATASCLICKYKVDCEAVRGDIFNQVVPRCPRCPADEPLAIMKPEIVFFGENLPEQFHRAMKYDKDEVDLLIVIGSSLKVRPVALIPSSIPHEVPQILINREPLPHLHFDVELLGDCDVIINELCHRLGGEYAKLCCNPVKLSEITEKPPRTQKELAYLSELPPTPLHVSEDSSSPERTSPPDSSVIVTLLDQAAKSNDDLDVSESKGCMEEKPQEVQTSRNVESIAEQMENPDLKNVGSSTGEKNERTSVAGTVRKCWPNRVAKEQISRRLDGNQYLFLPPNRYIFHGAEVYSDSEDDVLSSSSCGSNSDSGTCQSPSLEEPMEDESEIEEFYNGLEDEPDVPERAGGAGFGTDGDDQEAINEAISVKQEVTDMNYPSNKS

Experiments:
[1] = biological target: T1, SFB-tagged XPF (wild type) (UniProt Q92889); assay: co-IP; lysates of cells expressing SFB- and/or myc-tagged proteins, S-protein beads 3 h at 4 °C, NETN buffer, western blot; cells untreated or treated with UV (40 J m^-2) or MMC
T1 sequence: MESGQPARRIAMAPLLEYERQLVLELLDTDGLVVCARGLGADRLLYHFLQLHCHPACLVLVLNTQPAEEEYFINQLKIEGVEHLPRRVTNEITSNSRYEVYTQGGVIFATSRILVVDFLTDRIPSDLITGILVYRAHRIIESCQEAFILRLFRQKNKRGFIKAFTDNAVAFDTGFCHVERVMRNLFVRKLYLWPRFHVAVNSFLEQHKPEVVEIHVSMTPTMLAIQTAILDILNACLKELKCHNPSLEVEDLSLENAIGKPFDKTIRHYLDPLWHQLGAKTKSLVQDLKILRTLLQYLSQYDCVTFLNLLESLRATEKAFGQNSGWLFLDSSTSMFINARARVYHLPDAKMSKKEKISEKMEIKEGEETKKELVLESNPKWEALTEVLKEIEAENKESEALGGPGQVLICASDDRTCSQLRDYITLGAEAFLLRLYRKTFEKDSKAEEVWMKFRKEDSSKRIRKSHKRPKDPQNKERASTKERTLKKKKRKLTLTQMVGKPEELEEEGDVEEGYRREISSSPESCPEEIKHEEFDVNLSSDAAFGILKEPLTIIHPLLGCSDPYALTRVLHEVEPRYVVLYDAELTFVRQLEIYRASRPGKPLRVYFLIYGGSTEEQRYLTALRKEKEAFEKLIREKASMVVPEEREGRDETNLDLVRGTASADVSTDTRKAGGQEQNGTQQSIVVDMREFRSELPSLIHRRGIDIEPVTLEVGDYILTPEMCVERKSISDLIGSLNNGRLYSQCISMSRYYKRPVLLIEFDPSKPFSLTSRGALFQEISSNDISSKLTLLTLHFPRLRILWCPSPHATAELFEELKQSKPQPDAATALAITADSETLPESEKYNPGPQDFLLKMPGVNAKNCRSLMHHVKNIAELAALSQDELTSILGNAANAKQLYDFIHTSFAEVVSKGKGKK

[2] = biological target: T2, SFB-tagged XPF K871R (UniProt Q92889); assay: as above
T2 sequence: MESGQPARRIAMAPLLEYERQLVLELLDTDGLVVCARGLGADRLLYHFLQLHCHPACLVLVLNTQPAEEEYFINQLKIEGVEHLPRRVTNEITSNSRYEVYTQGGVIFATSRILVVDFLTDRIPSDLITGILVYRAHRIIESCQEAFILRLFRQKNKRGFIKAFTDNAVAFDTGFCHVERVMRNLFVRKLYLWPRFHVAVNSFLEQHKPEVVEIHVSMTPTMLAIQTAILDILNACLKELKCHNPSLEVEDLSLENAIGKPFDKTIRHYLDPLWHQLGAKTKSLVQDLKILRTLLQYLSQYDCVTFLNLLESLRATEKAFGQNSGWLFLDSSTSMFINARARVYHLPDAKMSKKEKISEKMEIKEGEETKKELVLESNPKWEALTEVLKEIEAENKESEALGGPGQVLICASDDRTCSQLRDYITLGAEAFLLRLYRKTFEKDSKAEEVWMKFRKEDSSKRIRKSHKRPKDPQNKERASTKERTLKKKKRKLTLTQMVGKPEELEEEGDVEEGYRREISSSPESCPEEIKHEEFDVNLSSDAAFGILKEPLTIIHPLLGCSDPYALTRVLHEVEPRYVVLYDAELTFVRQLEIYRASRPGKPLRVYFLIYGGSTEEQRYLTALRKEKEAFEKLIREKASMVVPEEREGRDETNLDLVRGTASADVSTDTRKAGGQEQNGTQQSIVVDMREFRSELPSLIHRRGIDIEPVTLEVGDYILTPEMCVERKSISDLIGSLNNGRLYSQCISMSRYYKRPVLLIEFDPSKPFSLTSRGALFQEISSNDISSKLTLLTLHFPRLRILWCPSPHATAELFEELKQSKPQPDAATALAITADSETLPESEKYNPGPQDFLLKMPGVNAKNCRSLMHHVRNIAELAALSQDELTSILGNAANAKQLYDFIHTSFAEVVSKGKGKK

[3] = biological target: T3, SFB-tagged XPF K911R (UniProt Q92889); assay: as above
T3 sequence: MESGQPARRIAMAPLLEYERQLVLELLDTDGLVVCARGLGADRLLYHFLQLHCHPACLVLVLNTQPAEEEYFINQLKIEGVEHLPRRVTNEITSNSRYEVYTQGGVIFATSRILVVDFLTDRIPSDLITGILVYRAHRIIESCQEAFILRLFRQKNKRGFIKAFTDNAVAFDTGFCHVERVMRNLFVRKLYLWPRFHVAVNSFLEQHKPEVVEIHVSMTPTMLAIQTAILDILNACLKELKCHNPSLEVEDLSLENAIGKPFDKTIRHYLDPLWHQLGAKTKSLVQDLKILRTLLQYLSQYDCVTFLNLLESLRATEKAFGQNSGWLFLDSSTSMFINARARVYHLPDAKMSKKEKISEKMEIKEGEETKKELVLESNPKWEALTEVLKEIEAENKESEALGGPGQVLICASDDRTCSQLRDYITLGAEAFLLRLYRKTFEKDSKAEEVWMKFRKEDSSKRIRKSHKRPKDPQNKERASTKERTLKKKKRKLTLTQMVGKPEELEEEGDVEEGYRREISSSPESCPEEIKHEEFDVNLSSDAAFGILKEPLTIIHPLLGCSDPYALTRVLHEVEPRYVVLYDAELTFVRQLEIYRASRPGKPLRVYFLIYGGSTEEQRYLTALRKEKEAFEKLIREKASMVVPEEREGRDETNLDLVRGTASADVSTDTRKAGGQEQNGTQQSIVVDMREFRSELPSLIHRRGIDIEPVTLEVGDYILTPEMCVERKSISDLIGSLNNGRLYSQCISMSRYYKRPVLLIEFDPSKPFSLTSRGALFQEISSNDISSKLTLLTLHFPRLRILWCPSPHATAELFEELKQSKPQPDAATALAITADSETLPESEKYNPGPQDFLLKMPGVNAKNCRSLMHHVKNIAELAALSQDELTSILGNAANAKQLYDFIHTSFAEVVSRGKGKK

[4] = biological target: GST-tagged TIP60 (UniProt Q92993); assay: pull-down; GST pull-down with GST-TIP60 (GST as control) and MBP-ERCC1, proteins purified from E. coli; ERCC1 detected by immunoblotting with anti-ERCC1; both purified
[5] = biological target: GST-tagged TIP60 (UniProt Q92993); assay: pull-down; GST pull-down: GST-tagged protein bound to glutathione-Sepharose, MBP-tagged protein purified from E. coli; XPF detected by immunoblotting; both purified
[6] = biological target: GST-tagged SIRT1 (UniProt Q96EB6); assay: as above
[7] = biological target: SFB-tagged TIP60 (UniProt Q92993); assay: co-IP; lysates of cells expressing SFB- and/or myc-tagged proteins, S-protein beads 3 h at 4 °C, NETN buffer, western blot; cells untreated or treated with UV (40 J m^-2) or MMC

Myc-tagged TIP60 (from UniProt Q92993 1-513) (enzyme)
binding [1]: binds | binding [2]: binds | binding [3]: binds

B1: MBP-tagged ERCC1 (protein, UniProt P07992 1-297)
chain: MDPGKDKEGVPQPSGPPARKKFVIPLDEDEVPPGVAKPLFRSTQSLPTVDTSAQAAPQTYAEYAISQPLEGAGATCPTGSEPLAGETPNQALKPGAKSNSIIVSPRQRGNPVLKFVRNVPWEFGDVIPDYVLGQSTCALFLSLRYHNLHPDYIHGRLQSLGKNFALRVLLVQVDVKDPQQALKELAKMCILADCTLILAWSPEEAGRYLETYKAYEQKPADLLMEKLEQDFVSRVTECLTTVKSVNKTDSQTLLTTFGSLEQLIAASREDLALCPGLGPQKARRLFDVLHEPFLKVP
binding [4]: no binding | binding [5]: no binding

B2: MBP-tagged XPF (protein, UniProt Q92889 1-916)
chain: MESGQPARRIAMAPLLEYERQLVLELLDTDGLVVCARGLGADRLLYHFLQLHCHPACLVLVLNTQPAEEEYFINQLKIEGVEHLPRRVTNEITSNSRYEVYTQGGVIFATSRILVVDFLTDRIPSDLITGILVYRAHRIIESCQEAFILRLFRQKNKRGFIKAFTDNAVAFDTGFCHVERVMRNLFVRKLYLWPRFHVAVNSFLEQHKPEVVEIHVSMTPTMLAIQTAILDILNACLKELKCHNPSLEVEDLSLENAIGKPFDKTIRHYLDPLWHQLGAKTKSLVQDLKILRTLLQYLSQYDCVTFLNLLESLRATEKAFGQNSGWLFLDSSTSMFINARARVYHLPDAKMSKKEKISEKMEIKEGEETKKELVLESNPKWEALTEVLKEIEAENKESEALGGPGQVLICASDDRTCSQLRDYITLGAEAFLLRLYRKTFEKDSKAEEVWMKFRKEDSSKRIRKSHKRPKDPQNKERASTKERTLKKKKRKLTLTQMVGKPEELEEEGDVEEGYRREISSSPESCPEEIKHEEFDVNLSSDAAFGILKEPLTIIHPLLGCSDPYALTRVLHEVEPRYVVLYDAELTFVRQLEIYRASRPGKPLRVYFLIYGGSTEEQRYLTALRKEKEAFEKLIREKASMVVPEEREGRDETNLDLVRGTASADVSTDTRKAGGQEQNGTQQSIVVDMREFRSELPSLIHRRGIDIEPVTLEVGDYILTPEMCVERKSISDLIGSLNNGRLYSQCISMSRYYKRPVLLIEFDPSKPFSLTSRGALFQEISSNDISSKLTLLTLHFPRLRILWCPSPHATAELFEELKQSKPQPDAATALAITADSETLPESEKYNPGPQDFLLKMPGVNAKNCRSLMHHVKNIAELAALSQDELTSILGNAANAKQLYDFIHTSFAEVVSKGKGKK
binding [6]: binds | binding [5]: binds

B3: XPF, endogenous in HEK293T (protein, UniProt Q92889 1-916)
chain: MESGQPARRIAMAPLLEYERQLVLELLDTDGLVVCARGLGADRLLYHFLQLHCHPACLVLVLNTQPAEEEYFINQLKIEGVEHLPRRVTNEITSNSRYEVYTQGGVIFATSRILVVDFLTDRIPSDLITGILVYRAHRIIESCQEAFILRLFRQKNKRGFIKAFTDNAVAFDTGFCHVERVMRNLFVRKLYLWPRFHVAVNSFLEQHKPEVVEIHVSMTPTMLAIQTAILDILNACLKELKCHNPSLEVEDLSLENAIGKPFDKTIRHYLDPLWHQLGAKTKSLVQDLKILRTLLQYLSQYDCVTFLNLLESLRATEKAFGQNSGWLFLDSSTSMFINARARVYHLPDAKMSKKEKISEKMEIKEGEETKKELVLESNPKWEALTEVLKEIEAENKESEALGGPGQVLICASDDRTCSQLRDYITLGAEAFLLRLYRKTFEKDSKAEEVWMKFRKEDSSKRIRKSHKRPKDPQNKERASTKERTLKKKKRKLTLTQMVGKPEELEEEGDVEEGYRREISSSPESCPEEIKHEEFDVNLSSDAAFGILKEPLTIIHPLLGCSDPYALTRVLHEVEPRYVVLYDAELTFVRQLEIYRASRPGKPLRVYFLIYGGSTEEQRYLTALRKEKEAFEKLIREKASMVVPEEREGRDETNLDLVRGTASADVSTDTRKAGGQEQNGTQQSIVVDMREFRSELPSLIHRRGIDIEPVTLEVGDYILTPEMCVERKSISDLIGSLNNGRLYSQCISMSRYYKRPVLLIEFDPSKPFSLTSRGALFQEISSNDISSKLTLLTLHFPRLRILWCPSPHATAELFEELKQSKPQPDAATALAITADSETLPESEKYNPGPQDFLLKMPGVNAKNCRSLMHHVKNIAELAALSQDELTSILGNAANAKQLYDFIHTSFAEVVSKGKGKK
binding [7]: binds
